# In PubChem BioAssay (NCATS):
# This list was built around the results that the source calls inconclusive (neither active nor inactive); the mix of calls is not that of the screen. For part of these data: No potency is given beside an inconclusive call; the fits are too rough. Activity calls are given as the source filed them. Unless noted, the call rests on the fitted dose curve; in most records, active means well fitted curve in the direction sought with a large enough effect; inconclusive means small, poorly fitted or top-dose-only effect, or another doubt; inactive means no such curve, though single readings can be large; an effect the other way counts as inactive or inconclusive.
# Columns and labels:
# [1] = NFAT Signaling Pathway (AID 444; active means well fitted curve in either direction with a large enough effect, not every such curve was filed as active; inconclusive means small, poorly fitted or top-dose-only effect, or another doubt;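 further: carbachol stimulus at about its EC50 of 1 µM final; on the % scale 0 is the no-effect control and ±100 the full control effect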); details: Jurkat NFAT-bla M1, carbachol, beta-lactamase ratio, 5 h; at 7.69 µM (top of the series) unless noted
# Method in brief: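 Read-out: CCF4 FRET ratio (460 nm/530 nm) after 1 h RT dye loading, used for %activity and AC50 from titration series. Cells: Jurkat NFAT-β-lactamase/M1 line, treated with compound plus 1 uM carbachol for 5 h, 37 °C.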
# [2] = Stat Signaling Pathway (AID 446; active means well fitted curve in either direction with a large enough effect, not every such curve was filed as active; inconclusive means small, poorly fitted or top-dose-only effect, or another doubt;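 further: ME-180 cervical cancer cells given 40 pM IL-6 alongside compound; SIE-controlled beta-lactamase reporter measured as 460/530 nm FRET emission ratio; top concentration of the series differs between compounds; on the % scale 0 is the no-effect control and ±100 the full control effect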); details: ME-180 SIE beta-lactamase reporter, IL-6 stimulated, 5 h; at 7.69 µM (top of the series) unless noted
# Method in brief: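 Compound effects on IL-6-induced STAT reporter activity were measured in ME-180 cells. After overnight culture, cells were co-treated with 40 pM IL-6 for 5 hrs before beta-lactamase substrate loading at room temperature.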
# [3] = target: 3',5'-cyclic-AMP phosphodiesterase 4B (Homo sapiens) (UniProt Q07343); assay: qHTS Assay for Inhibitors of PDE-IV (AID 607; active means well fitted activation curve with a large enough effect in the main read-out, with a control signal flat, not every such curve was filed as active; inconclusive means small, poorly fitted or top-dose-only effect, or effect the other way, or a change in a side signal; further: potency means the concentration at half of the fitted maximal effect); details: HEK293 ACTOne CNG channel cells, membrane potential fluorescence; activation (PDE inhibition): at 22.9 µM (top of the series)
# Sequence of UniProt Q07343 (Q07343 whole entry, looked up): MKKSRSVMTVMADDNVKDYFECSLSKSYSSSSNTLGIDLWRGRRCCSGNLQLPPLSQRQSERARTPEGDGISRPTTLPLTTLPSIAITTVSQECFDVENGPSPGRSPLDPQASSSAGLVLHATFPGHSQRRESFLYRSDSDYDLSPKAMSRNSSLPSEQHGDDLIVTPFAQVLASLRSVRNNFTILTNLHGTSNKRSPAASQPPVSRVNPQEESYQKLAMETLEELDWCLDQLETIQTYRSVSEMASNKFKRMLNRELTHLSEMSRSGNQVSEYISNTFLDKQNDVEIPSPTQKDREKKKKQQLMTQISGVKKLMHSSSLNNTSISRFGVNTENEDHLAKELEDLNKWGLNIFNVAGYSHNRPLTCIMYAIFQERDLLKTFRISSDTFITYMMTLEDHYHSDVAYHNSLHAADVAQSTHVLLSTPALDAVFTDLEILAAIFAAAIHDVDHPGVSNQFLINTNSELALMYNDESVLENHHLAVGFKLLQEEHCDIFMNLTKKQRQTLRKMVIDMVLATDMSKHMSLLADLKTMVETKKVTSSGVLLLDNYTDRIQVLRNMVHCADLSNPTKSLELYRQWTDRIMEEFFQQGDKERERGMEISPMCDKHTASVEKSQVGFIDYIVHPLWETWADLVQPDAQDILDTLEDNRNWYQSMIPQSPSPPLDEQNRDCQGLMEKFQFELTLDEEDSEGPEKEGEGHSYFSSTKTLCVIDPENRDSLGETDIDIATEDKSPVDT
# Method in brief: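 ACTOne HEK293 cells carry a modified cAMP-gated CNG channel and express endogenous PDE4; plated 1000 cells/well, compounds up to 22.9 uM final. Membrane-potential dye fluorescence (ex 535/em 590) was read; parental cells received 10 uM forskolin + 100 uM RO 20-1724.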
# [4] = target: Cytochrome P450 3A4 (Homo sapiens) (UniProt P08684); assay: qHTS Assay for Inhibitors and Substrates of Cytochrome P450 3A4 (AID 884); details: recombinant CYP3A4, Luciferin-PPXE luminescence; activity change, negative = inhibition: at 57.1 µM (top of the series); further: potency means the concentration at half of the fitted maximal effect; nearly all actives have a fitted effect of over 50% in size
# Sequence of UniProt P08684 (P08684 whole entry, looked up): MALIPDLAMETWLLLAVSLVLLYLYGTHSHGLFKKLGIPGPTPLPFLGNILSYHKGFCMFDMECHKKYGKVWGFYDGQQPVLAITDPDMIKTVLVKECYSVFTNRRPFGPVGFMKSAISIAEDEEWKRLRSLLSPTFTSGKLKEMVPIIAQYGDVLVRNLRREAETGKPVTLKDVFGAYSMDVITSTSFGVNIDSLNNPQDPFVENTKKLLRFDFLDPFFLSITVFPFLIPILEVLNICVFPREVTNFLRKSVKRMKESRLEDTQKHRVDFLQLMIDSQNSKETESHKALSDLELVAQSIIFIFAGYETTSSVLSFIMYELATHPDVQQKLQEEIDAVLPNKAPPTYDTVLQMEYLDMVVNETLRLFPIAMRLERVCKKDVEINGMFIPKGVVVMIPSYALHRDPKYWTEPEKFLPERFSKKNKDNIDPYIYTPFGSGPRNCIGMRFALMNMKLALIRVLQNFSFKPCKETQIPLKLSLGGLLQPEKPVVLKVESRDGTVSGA
# Method in brief: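 Luminescent readout of luciferin produced by CYP3A4 (20 nM) dealkylation of Luciferin-PPXE, 25 uM (its KM). NADPH-driven reaction ran 60 min at RT after 10 min compound preincubation; data scaled to 57 uM ketoconazole as 100% inhibition.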
# [5] = qHTS Assay for Identification of Small Molecule Agonists for Hypoxia Response Element Signaling Pathway (AID 914; active means well fitted activation curve with a large enough effect in the signal ratio, with a control signal flat, not every such curve was filed as active; inconclusive means small, poorly fitted or top-dose-only effect, or effect the other way, or a change in a side signal; the % refers to the signal ratio; further: potency means the concentration at half of the fitted maximal effect; on activation: top concentration of the series differs between compounds; % of control where 0% means no effect); details: ME-180 HRE-bla reporter, beta-lactamase ratio, CoCl2, 17 h; activation: active compounds read high
# Method in brief: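 A beta-lactamase reporter under hypoxia response element control in ME-180 cells served as the system. Compound titrations plus EC50 CoCl2 ran 17 h at 37 degrees Celsius; AC50 values were fitted from %Activity.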
# [6] = target: Dual specificity protein kinase CLK4 (Homo sapiens) (UniProt Q9HAZ1); assay: qHTS Assay for Inhibitors of CDC-like Kinase 4 (ADP-FP Assay) (AID 1795);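 further: recombinant human CLK4 phosphorylating RS repeat peptide at 1 µM ATP; potency means the concentration at half of the fitted maximal effect; nearly all actives have a fitted effect of over 60% in size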
# Sequence of UniProt Q9HAZ1 (Q9HAZ1 whole entry, looked up): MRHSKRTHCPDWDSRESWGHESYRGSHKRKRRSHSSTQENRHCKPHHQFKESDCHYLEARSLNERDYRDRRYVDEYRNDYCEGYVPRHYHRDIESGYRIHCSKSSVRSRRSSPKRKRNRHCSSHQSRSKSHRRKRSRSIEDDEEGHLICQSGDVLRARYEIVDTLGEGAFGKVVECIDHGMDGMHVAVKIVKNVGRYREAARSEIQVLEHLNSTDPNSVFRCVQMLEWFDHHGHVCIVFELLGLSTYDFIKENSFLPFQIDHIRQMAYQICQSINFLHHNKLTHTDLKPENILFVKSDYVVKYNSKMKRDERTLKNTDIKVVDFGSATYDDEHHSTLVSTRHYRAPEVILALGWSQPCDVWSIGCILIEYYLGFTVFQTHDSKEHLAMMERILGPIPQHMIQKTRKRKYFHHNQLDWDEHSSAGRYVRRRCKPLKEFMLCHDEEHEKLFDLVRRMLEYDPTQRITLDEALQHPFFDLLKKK
# Method in brief: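 Inhibition of ADP formation by 6.25 nM Clk4 is measured using 1 uM ATP and 100 uM RS repeat peptide over one hour. Produced ADP displaces a fluorescent tracer from antibody, lowering polarization.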
# [7] = Primary qHTS for small molecule stabilizers of the endoplasmic reticulum resident proteome: Secreted ER Calcium Modulated Protein (SERCaMP) assay (AID 1508630); details: SH-SY5Y GLuc-SERCaMP (Gaussia luciferase released on ER calcium loss) secretion, thapsigargin, luminescence; activity change, negative = inhibition: at 38.4 µM (top of the series) unless noted; further: potency means the concentration at half of the fitted maximal effect; on activity change, negative = inhibition: on the % scale 0 is the no-effect control and ±100 the full control effect
# Method in brief: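 The SH-SY5Y reporter protocol was run at 3 concentrations up to 38.3 uM (primary) or 11 concentrations (follow-up): 16 h compound, 100 nM thapsigargin for 4 h, then extracellular luciferase luminescence.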
# [8] = target: Thioredoxin reductase 1, cytoplasmic (Rattus norvegicus) (UniProt O89049); assay: qHTS Assay for Inhibitors of Mammalian Selenoprotein Thioredoxin Reductase 1 (TrxR1) (AID 488773); details: Potency: inhibition; further: potency means the concentration at half of the fitted maximal effect; nearly all actives have a fitted effect of over 40% in size
# Sequence of UniProt O89049 (O89049 whole entry, looked up): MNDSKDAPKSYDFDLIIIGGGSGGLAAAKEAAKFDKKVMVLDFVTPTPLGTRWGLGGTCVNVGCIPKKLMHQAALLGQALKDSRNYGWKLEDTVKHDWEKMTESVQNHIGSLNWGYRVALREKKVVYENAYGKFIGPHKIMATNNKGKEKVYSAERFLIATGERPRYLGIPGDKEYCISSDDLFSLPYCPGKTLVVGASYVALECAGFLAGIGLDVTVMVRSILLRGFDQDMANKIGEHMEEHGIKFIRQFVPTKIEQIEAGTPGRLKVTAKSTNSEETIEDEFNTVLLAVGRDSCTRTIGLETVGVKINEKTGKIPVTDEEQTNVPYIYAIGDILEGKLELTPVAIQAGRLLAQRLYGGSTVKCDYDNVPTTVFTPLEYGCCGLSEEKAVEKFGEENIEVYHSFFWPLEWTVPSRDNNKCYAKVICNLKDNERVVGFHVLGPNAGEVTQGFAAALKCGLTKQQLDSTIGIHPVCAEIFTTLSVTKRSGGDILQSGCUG
# Method in brief: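 Inhibition is scored from the loss of NADPH fluorescence between first and last reads of an 8-min kinetic run. Selenite (400 uM) was the substrate, added after 15 min compound preincubation at room temperature.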
# [9] = Validation screen for small molecules that induce genotoxicity in human embryonic kidney (HEK293T) cells expressing luciferase-tagged ELG1 (AID 493106); further: potency means the concentration at half of the fitted maximal effect
# Method in brief: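 Cells were dispensed at 2,000 per well, then 23 nL compound or DMSO was pinned in. After 16 hr at 37 °C and 5% CO2, ONE-Glo reagent was added. Luciferase activity was measured following 30 min at room temperature.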
# [10] = qHTS for Inhibitors of ATXN expression: Validation (AID 588378); further: on the % scale 0 is the no-effect control and ±100 the full control effect; nearly all actives have a fitted effect of over 75% in size
# Method in brief: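 Validation of ATXN2 expression inhibitors uses a cell-based luciferase fusion reporter in HEK293 cells, with 24 h compound exposure and paired viability (fluorescence) and reporter (luminescence) end-point reads.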
# [11] = target: Glutathione peroxidase 1 (Homo sapiens) (UniProt P07203); assay: Primary qHTS Assay for Inhibitors of Recombinant Selenoprotein Glutathione Peroxidase 1 (GPX1) (AID 1845191); further: nearly all actives have a fitted effect of over 65% in size; further: potency means the concentration at half of the fitted maximal effect
# Sequence of UniProt P07203 (P07203 whole entry, looked up): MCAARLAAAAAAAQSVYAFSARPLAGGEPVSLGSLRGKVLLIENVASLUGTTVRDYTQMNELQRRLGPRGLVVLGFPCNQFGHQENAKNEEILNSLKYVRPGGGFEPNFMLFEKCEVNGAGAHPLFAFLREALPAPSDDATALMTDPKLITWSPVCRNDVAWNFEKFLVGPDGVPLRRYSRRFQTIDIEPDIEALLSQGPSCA
# Method in brief: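 NADPH consumption tracked by fluorescence at 340/450 nm between t=0 and t=15 min, room temperature. Final mix: 10 nM GPX1, 100 nM glutathione reductase, 1 mM GSH, 0.5 mM NADPH, 0.5 mM cumene hydroperoxide, 0.01% BSA; 30 min compound–enzyme preincubation.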
# [12] = AP1 Signaling Pathway (AID 357; active means well fitted curve in either direction with a large enough effect, not every such curve was filed as active; inconclusive means small, poorly fitted or top-dose-only effect, or another doubt;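 further: ME-180 reporter cells stimulated with EGF at its EC50 level; top concentration of the series differs between compounds; on the % scale 0 is the no-effect control and ±100 the full control effect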); details: ME-180 (cervical carcinoma) AP-1-bla reporter, EGF-induced, beta-lactamase ratio, 5 h; at 7.69 µM (top of the series) unless noted
# Method in brief: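 AP-1-bla ME-180 cells, Opti-MEM + 0.5% dialyzed FBS, plated overnight 37 °C. Cpd titration + EC50 EGF, 5 h 37 °C. CCF4 2.5 h RT; ex 405, em 460/530 ratio → %activity, AC50.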
# [13] = target: Glucocorticoid receptor (Homo sapiens) (UniProt P04150); assay: GR-GFP Redistribution (AID 450;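 active means compounds whose dose series gives a full or clear partial fitted curve of increased nuclear translocation; inconclusive means weak partial curve or effect only at the top dose; inactive means no dose-dependent translocation response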; further: potency means the concentration at half of the fitted maximal effect); details: U2OS GR-GFP nuclear translocation, laser cytometry, 2 h
# Sequence of UniProt P04150 (P04150 whole entry, looked up): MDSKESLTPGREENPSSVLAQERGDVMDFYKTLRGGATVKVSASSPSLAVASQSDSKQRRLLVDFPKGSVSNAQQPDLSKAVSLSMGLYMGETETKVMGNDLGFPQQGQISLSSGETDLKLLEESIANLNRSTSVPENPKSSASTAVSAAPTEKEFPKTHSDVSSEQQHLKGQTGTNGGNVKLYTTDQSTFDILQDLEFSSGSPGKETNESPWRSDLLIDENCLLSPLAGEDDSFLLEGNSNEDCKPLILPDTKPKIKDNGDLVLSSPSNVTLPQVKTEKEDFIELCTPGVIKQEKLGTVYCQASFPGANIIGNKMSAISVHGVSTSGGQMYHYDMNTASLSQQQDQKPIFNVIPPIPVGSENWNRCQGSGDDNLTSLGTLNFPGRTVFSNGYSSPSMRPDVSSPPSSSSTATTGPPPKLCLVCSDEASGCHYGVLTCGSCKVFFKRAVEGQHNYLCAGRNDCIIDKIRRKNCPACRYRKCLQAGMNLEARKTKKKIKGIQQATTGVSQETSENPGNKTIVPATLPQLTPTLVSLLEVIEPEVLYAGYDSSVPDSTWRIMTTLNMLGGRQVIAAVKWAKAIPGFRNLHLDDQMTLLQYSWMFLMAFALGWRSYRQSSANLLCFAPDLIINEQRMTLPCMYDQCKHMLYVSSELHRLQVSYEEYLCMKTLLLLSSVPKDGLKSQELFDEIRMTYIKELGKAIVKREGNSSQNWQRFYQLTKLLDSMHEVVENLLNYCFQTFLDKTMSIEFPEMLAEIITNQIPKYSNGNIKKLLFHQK
# [14] = target: Cytochrome P450 2C19 (Homo sapiens) (UniProt P33261); assay: qHTS Assay for Inhibitors and Substrates of Cytochrome P450 2C19 (AID 899); further: potency means the concentration at half of the fitted maximal effect; nearly all actives have a fitted effect of over 60% in size
# Sequence of UniProt P33261 (P33261 whole entry, looked up): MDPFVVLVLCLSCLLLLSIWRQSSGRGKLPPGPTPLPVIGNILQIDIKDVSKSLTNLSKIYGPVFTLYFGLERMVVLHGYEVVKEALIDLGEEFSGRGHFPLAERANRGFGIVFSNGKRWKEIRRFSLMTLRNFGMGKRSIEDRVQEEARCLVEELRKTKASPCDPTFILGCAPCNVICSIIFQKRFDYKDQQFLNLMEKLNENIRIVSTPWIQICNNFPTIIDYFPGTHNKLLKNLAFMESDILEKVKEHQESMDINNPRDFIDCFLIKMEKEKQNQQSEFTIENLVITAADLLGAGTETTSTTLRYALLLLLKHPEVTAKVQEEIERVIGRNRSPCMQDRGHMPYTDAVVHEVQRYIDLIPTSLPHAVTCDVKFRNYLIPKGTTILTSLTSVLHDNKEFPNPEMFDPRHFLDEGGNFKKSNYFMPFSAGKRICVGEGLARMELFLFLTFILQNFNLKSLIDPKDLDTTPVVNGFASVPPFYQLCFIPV
# Method in brief: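 5nM enzyme + 10uM Luciferin-H EGE (=KM), 50mM KPO4; cpd pin-transferred, 10 min 37C; NADPH regen, 60 min 37C; stopped w/ luciferin detection reagent, 20 min; luminescence. Normalized to 57uM ketoconazole (AC100).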
# [15] = target: Ubiquitin carboxyl-terminal hydrolase 1 (Homo sapiens) (UniProt O94782); assay: Inhibitors of USP1/UAF1: Pilot qHTS (AID 504865);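 further: rhodamine fluorescence freed from ubiquitin-rhodamine substrate followed over time; potency means the concentration at half of the fitted maximal effect; nearly all actives have a fitted effect of over 35% in size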
# Sequence of UniProt O94782 (O94782 whole entry, looked up): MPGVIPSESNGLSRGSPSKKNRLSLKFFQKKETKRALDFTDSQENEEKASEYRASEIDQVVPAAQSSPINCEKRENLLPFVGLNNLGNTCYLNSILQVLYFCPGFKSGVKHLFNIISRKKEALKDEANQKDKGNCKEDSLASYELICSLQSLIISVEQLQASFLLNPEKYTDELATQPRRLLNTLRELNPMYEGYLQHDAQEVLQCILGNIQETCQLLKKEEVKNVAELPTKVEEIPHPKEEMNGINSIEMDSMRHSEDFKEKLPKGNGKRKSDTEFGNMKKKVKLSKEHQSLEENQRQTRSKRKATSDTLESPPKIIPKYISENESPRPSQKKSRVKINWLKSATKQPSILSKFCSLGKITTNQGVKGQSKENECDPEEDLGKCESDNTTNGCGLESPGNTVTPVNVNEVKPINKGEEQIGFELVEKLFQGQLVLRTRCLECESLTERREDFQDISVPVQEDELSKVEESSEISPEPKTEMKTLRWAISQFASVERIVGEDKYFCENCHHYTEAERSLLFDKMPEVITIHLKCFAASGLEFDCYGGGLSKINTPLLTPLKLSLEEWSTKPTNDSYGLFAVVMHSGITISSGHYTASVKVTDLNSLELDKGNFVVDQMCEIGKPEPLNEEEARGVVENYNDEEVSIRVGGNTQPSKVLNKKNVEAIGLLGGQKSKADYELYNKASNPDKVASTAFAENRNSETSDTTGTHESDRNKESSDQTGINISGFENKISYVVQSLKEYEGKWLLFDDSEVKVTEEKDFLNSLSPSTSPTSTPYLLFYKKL
# Method in brief: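 Kinetic fluorescence assay: 1nM USP1/UAF1, 15 min compound preincubation, then 150nM Ub-Rho; 480/540 nm.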
# [16] = target: Phospholipid hydroperoxide glutathione peroxidase GPX4 (Homo sapiens) (UniProt P36969); assay: Primary qHTS Assay for Inhibitors of Recombinant Selenoprotein Glutathione Peroxidase 4 (GPX4) (AID 1845192); further: potency means the concentration at half of the fitted maximal effect; nearly all actives have a fitted effect of over 65% in size
# Sequence of UniProt P36969 (P36969 whole entry, looked up): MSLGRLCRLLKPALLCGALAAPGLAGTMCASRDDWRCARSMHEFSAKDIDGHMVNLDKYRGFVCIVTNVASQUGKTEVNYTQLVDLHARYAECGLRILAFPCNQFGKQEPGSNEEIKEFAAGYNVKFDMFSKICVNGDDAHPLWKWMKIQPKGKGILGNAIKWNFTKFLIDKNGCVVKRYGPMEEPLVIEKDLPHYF
# Method in brief: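 NADPH consumption followed by fluorescence at 340/450 nm, t=0 and after 15 min at room temperature. Reaction started with cumene hydroperoxide (0.5 mM final) after 30 min compound–GPX4 preincubation; final 200 nM GPX4, 100 nM GR, 1 mM GSH, 0.5 mM NADPH.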
# Tags describe the fitted curve by direction and shape or compound fluorescence and quenching.
smiles,measurement,setting,value
COc1ccccc1CNc1ncnc2ccc(-c3ccccc3OC)cc12,"activity change, negative = inhibition",[1],inconclusive: -83% [inhibitor]
same,"activity, negative = inhibition",[2],inconclusive: -38.7% [inhibitor]
same,Potency,[3],"inconclusive [rising, single point]"
same,Potency,[4],active: 6.31 µM
same,Potency,[5],"inconclusive [inhibitor, single point]"
same,Potency,[6],active: 1.58 µM
same,Potency,[7],"inconclusive [inhibitor, single point]"
CNC(=O)[C@H]1O[C@@H](n2cnc3c(NCc4ccc(N)cc4)ncnc32)[C@H](O)[C@@H]1O,Potency,[8],"inconclusive [inhibitor, single point]"
same,Potency,[9],"inconclusive [activator, partial curve, poor fit]"
same,Potency,[10],inactive
same,Potency,[7],"inconclusive [inhibitor, partial curve, poor fit]"
same,Potency,[11],inactive
Clc1ccccc1-c1ccc2ncnc(NC3CCNCC3)c2c1,"activity change, negative = inhibition",[12],inconclusive: 110% [activator]
same,Potency,[13],inconclusive [single point]
same,Potency,[6],"inconclusive [falling, single point]"
same,Potency,[7],"inconclusive [inhibitor, single point]"
Cn1cccc1C(=O)N1CCC2(CC1)CN(Cc1cc(C(F)(F)F)cc(C(F)(F)F)c1)C2,"activity change, negative = inhibition",[12],inactive: -5.13%
same,Potency,[7],"inconclusive [inhibitor, single point]"
Cc1ccccc1-c1ccc2ncnc(N3CCNCC3)c2c1,"activity change, negative = inhibition",[12],inconclusive: 32.4% [activator]
same,Potency,[6],"inconclusive [falling, single point]"
same,Potency,[7],"inconclusive [inhibitor, single point]"
COCCNc1ncnc2ccc(-c3ccccc3C(F)(F)F)cc12,Potency,[3],"inconclusive [rising, partial curve]"
same,Potency,[14],active: 6.31 µM
same,Potency,[6],"inconclusive [falling, partial curve]"
same,Potency,[7],"inconclusive [inhibitor, single point]"
Cc1noc(C)c1-c1nc(N2CCN(C)CC2)c2ccccc2n1,Potency,[3],"inconclusive [activator, partial curve]"
same,activation,[5],inconclusive: 33.3%
same,Potency,[6],"inconclusive [falling, partial curve]"
same,Potency,[15],"inconclusive [inhibitor, partial curve, poor fit]"
same,Potency,[7],"inconclusive [inhibitor, single point]"
CC1=C(C(=O)O)N2C(=O)[C@@H](NC(=O)[C@H](N)C3=CCC=CC3)[C@@H]2SC1,Potency,[7],inactive
same,Potency,[11],"inconclusive [inhibitor, partial curve]"
same,Potency,[16],"inconclusive [inhibitor, partial curve]"
